Measurements published in publication PMC6753376.
Some entries of the source have several records that differ or are many. The list is limited to them. An entry can have further records. Some protein pairs were linked at several places, one record each.

Target: CCT8 (UniProt P50990)
Test: cross-linking mass spectrometry
Details: lysate

UniProt P50990, sequence (P50990 whole entry): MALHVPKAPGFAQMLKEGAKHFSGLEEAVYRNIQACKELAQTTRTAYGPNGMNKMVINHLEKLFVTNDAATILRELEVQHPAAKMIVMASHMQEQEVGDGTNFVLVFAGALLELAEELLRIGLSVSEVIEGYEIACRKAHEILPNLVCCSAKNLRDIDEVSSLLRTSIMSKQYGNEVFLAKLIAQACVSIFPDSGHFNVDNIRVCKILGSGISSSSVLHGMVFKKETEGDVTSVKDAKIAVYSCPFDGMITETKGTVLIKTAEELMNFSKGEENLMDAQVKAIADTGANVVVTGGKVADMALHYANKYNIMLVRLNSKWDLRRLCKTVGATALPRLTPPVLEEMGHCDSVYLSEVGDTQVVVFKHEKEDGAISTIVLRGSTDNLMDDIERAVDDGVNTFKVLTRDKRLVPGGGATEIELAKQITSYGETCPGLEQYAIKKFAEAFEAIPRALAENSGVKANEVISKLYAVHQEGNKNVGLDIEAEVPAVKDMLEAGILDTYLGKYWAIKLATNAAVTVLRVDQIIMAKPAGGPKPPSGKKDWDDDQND
CCT3, sequence (P49368 whole entry): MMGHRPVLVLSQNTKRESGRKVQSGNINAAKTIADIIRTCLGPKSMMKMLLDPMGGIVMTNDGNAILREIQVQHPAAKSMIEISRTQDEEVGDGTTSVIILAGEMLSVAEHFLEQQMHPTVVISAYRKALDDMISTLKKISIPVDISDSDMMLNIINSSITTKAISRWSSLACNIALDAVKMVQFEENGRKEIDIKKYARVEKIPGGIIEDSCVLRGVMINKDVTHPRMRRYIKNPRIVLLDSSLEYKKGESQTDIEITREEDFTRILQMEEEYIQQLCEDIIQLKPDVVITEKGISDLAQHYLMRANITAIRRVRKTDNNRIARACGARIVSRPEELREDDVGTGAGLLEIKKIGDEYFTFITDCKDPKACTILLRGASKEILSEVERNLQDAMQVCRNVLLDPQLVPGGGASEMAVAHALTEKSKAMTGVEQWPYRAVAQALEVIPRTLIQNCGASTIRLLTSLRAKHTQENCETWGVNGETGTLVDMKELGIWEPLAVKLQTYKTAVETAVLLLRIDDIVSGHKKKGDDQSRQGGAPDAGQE
CCT6A, sequence (P40227 whole entry): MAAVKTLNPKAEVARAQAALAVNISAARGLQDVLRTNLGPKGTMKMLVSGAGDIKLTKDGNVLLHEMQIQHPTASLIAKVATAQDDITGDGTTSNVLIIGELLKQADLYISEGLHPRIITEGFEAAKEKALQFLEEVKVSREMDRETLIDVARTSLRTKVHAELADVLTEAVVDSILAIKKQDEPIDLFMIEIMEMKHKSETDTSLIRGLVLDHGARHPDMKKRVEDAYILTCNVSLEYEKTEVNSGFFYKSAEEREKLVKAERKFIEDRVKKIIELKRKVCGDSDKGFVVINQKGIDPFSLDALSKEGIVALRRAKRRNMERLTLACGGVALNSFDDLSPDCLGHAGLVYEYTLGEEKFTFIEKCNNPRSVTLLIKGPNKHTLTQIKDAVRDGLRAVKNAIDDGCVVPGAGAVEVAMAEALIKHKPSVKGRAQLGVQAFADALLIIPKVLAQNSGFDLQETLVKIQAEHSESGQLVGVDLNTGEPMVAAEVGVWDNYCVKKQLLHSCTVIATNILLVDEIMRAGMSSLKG
TCP1, sequence (P17987 whole entry): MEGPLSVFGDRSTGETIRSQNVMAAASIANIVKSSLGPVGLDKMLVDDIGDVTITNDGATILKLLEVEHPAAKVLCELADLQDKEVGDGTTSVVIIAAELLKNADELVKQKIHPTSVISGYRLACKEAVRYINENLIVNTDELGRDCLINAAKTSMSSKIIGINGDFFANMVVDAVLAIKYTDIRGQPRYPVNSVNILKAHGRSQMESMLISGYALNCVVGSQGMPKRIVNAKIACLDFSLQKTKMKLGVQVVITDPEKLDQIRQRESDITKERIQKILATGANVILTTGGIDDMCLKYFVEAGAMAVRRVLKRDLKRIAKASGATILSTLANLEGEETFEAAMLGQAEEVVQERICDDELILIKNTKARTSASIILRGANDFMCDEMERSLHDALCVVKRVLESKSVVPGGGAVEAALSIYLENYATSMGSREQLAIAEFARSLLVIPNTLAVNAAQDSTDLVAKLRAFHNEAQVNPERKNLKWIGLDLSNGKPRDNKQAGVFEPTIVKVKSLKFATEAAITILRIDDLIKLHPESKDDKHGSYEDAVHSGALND

| Substance | cross-linked residues |
| --- | --- |
| CCT6A, P40227 | K197 - K400 and K199 - K400 and S200 - K400 and K359 - K326 and K359 - K400 |
| TCP1, P17987 | K466 - K466 and K494 - K459 and K494 - K466 |
| CCT3, P49368 | K21 - K16 and K21 - K20 and K21 - K459 |
